# Where “and” joins values, the source holds several entries; their conditions need not be identical. Equal entries are not always repeated. Over roughly 2,900 compounds, “IRF Lucia reporter activity, fold change vs agonist alone” has its median near 0.9; the highest 2% begin near 2.8. Some of the results follow.
# What was measured:
# [1] = tested on: RAW-Dual; experiment: IRF Lucia reporter activity, fold change vs agonist alone; cytotoxicity flag (confluency mask): not cytotoxic; higher = enhanced IRF activity
# Method in brief: (§1)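 RAW-Dual macrophages (50,000 cells/well in DMEM, 384-well plates) received 50 nL of library stock by pin tool, then a PRR agonist 1 h later, and were kept at 37 °C, 5% CO2. After 20 hours, supernatant was read for IRF by QuantiLuc luminescence and for NF-κB by QuantiBlue absorbance at 620 nm. Reporter activity is fold change over agonist-alone wells. Cytotoxic wells had IncuCyte confluency below 70% of agonist controls in both mask sets.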
# [2] = tested on: RAW-Dual; experiment: IRF Lucia reporter activity, fold change vs agonist alone; higher = enhanced IRF activity; conditions: agonist: MPLA (TLR4) […]
# Method in brief: as §1
# [3] = tested on: RAW-Dual; experiment: IRF Lucia reporter activity, fold change vs agonist alone; cytotoxicity flag (confluency mask): cytotoxic (confluency <70% of control); higher = enhanced IRF activity
# Method in brief: as §1
# [4] = agonist: 3'3'-cGAMP (STING) 10 ug/mL
# [5] = library stock concentration (final ~1000-fold dilution): 10 mM, cytotoxicity flag (confluency mask): not cytotoxic
# [6] = library stock concentration (final ~1000-fold dilution): 10 mM, cytotoxicity flag (confluency mask): cytotoxic (confluency <70% of control)
compound,measurement,setting,value
CCC(C)n1cc(C)c2c(C(=O)NCc3c(C)cc(C)[nH]c3=O)cc(-c3ccc(N4CCNCC4)nc3)cc21 (stereo unspecified) (library stock concentration (final ~1000-fold dilution): 2 mM),IRF Lucia reporter activity,[1]; [4],1.01
same,IRF Lucia reporter activity,[1]; agonist: LPS (TLR4) 0.1 ug/mL,0.947
CCC(C)n1cc(C)c2c(C(=O)NCc3c(C)cc(C)[nH]c3=O)cc(-c3ccc(N4CCNCC4)nc3)cc21 (stereo unspecified),IRF Lucia reporter activity,"[2]; library stock concentration (final ~1000-fold dilution): 2 mM, cytotoxicity flag (confluency mask): not cytotoxic",0.958
COc1ccc([C@@H]2CC(=O)c3c(O)cc(O[C@@H]4O[C@H](CO[C@@H]5O[C@@H](C)[C@H](O)[C@@H](O)[C@H]5O)[C@@H](O)[C@H](O)[C@H]4O)cc3O2)cc1O (library stock concentration (final ~1000-fold dilution): 10 mM),IRF Lucia reporter activity,[1]; [4],0.845
same,IRF Lucia reporter activity,[1]; agonist: LPS (TLR4) 0.1 ug/mL,1.09
O=c1ccc2ccc(O)cc2o1 (library stock concentration (final ~1000-fold dilution): 10 mM),IRF Lucia reporter activity,[1]; [4],1.01
same,IRF Lucia reporter activity,[1]; agonist: LPS (TLR4) 0.1 ug/mL,0.663
O=c1ccc2ccc(O)cc2o1,IRF Lucia reporter activity,[2]; [5],0.984
O=c1ccc2ccc(OCCCCN3CCN(c4cccc5sccc45)CC3)cc2[nH]1 (library stock concentration (final ~1000-fold dilution): 10 mM),IRF Lucia reporter activity,[1]; [4],1.06
same,IRF Lucia reporter activity,[1]; agonist: LPS (TLR4) 0.1 ug/mL,1.36
O=c1ccc2ccc(OCCCCN3CCN(c4cccc5sccc45)CC3)cc2[nH]1,IRF Lucia reporter activity,[2]; [5],1.08
C[N+](C)(C)CCCCCC[N+](C)(C)C (library stock concentration (final ~1000-fold dilution): 10 mM water),IRF Lucia reporter activity,[1]; [4],1.43
same,IRF Lucia reporter activity,[1]; agonist: LPS (TLR4) 0.1 ug/mL,1.05
C[N+](C)(C)CCCCCC[N+](C)(C)C,IRF Lucia reporter activity,"[2]; library stock concentration (final ~1000-fold dilution): 10 mM water, cytotoxicity flag (confluency mask): not cytotoxic",1.39
Cn1cc(-c2ccc3ncc(Cc4ccc5ncccc5c4)n3n2)cn1 (library stock concentration (final ~1000-fold dilution): 10 mM),IRF Lucia reporter activity,[1]; [4],0.218
same,IRF Lucia reporter activity,[1]; agonist: LPS (TLR4) 0.1 ug/mL,0.43
Cn1cc(-c2ccc3ncc(Cc4ccc5ncccc5c4)n3n2)cn1,IRF Lucia reporter activity,[2]; [5],0.482
Cc1ccc(NC(=O)Nc2cc(-c3ccccc3-c3nnn[nH]3)ccc2N(CC(C)C)CC(C)C)cc1 (library stock concentration (final ~1000-fold dilution): 10 mM),IRF Lucia reporter activity,[3]; [4],0.933
same,IRF Lucia reporter activity,[3]; agonist: LPS (TLR4) 0.1 ug/mL,2.09
Cc1cc(NC(=O)Nc2ccc(N(C)C)cc2)c2cc(F)cc(F)c2n1 (library stock concentration (final ~1000-fold dilution): 10 mM),IRF Lucia reporter activity,[1]; [4],0.984
same,IRF Lucia reporter activity,[1]; agonist: LPS (TLR4) 0.1 ug/mL,0.348
Cc1cc(NC(=O)Nc2ccc(N(C)C)cc2)c2cc(F)cc(F)c2n1,IRF Lucia reporter activity,[2]; [5],0.858
Br.CCCc1cc(-c2nc(-c3ccc(C)cc3)cs2)ccn1 (library stock concentration (final ~1000-fold dilution): 10 mM),IRF Lucia reporter activity,[3]; [4],1.18
same,IRF Lucia reporter activity,[3]; agonist: LPS (TLR4) 0.1 ug/mL,1.46
C=C1CCC(O)CC1=CC=C1CCCC2(C)C1CCC2C(C)CCCC(C)C (stereo unspecified) (library stock concentration (final ~1000-fold dilution): 1 mM),IRF Lucia reporter activity,[1]; [4],0.591
same,IRF Lucia reporter activity,[1]; agonist: LPS (TLR4) 0.1 ug/mL,0.364
CC1CN(CC(Cc2ccccc2)C(=O)NCC(=O)O)CCC1(C)c1cccc(O)c1 (stereo unspecified) (library stock concentration (final ~1000-fold dilution): 10 mM),IRF Lucia reporter activity,[1]; [4],0.991
same,IRF Lucia reporter activity,[1]; agonist: LPS (TLR4) 0.1 ug/mL,0.234
CC1CN(CC(Cc2ccccc2)C(=O)NCC(=O)O)CCC1(C)c1cccc(O)c1 (stereo unspecified),IRF Lucia reporter activity,[2]; [5],0.979
Cc1cn(C2C=CC(CO)O2)c(=O)[nH]c1=O (stereo unspecified),IRF Lucia reporter activity,[2]; [5],0.978
Cc1cn(C2C=CC(CO)O2)c(=O)[nH]c1=O (stereo unspecified) (library stock concentration (final ~1000-fold dilution): 10 mM),IRF Lucia reporter activity,[1]; [4],0.918
same,IRF Lucia reporter activity,[1]; agonist: LPS (TLR4) 0.1 ug/mL,1.13
CC1CC(OC(=O)C(O)c2ccccc2)CC(C)(C)C1 (stereo unspecified) (library stock concentration (final ~1000-fold dilution): 10 mM),IRF Lucia reporter activity,[3]; [4],1.15
same,IRF Lucia reporter activity,[3]; agonist: LPS (TLR4) 0.1 ug/mL,1.04
CC1CC(OC(=O)C(O)c2ccccc2)CC(C)(C)C1 (stereo unspecified),IRF Lucia reporter activity,[2]; [6],1.46
CN1CCC(c2c(O)cc(O)c3c(=O)cc(-c4ccccc4Cl)oc23)C(O)C1.Cl (stereo unspecified),IRF Lucia reporter activity,[2]; [5],0.577
CN1CCC(c2c(O)cc(O)c3c(=O)cc(-c4ccccc4Cl)oc23)C(O)C1.Cl (stereo unspecified) (library stock concentration (final ~1000-fold dilution): 10 mM),IRF Lucia reporter activity,[1]; [4],0.986
same,IRF Lucia reporter activity,[1]; agonist: LPS (TLR4) 0.1 ug/mL,0.0173
COc1ccc(CNc2nc(N3CCCC3CO)ncc2C(=O)NCc2ncccn2)cc1Cl (stereo unspecified),IRF Lucia reporter activity,[2]; [5],1.26
COc1ccc(CNc2nc(N3CCCC3CO)ncc2C(=O)NCc2ncccn2)cc1Cl (stereo unspecified) (library stock concentration (final ~1000-fold dilution): 10 mM),IRF Lucia reporter activity,[1]; [4],1.08
same,IRF Lucia reporter activity,[1]; agonist: LPS (TLR4) 0.1 ug/mL,1.24
O=C(O)c1cccnc1Nc1cccc(C(F)(F)F)c1,IRF Lucia reporter activity,[2]; [5],1.06
O=C(O)c1cccnc1Nc1cccc(C(F)(F)F)c1 (library stock concentration (final ~1000-fold dilution): 10 mM),IRF Lucia reporter activity,[1]; [4],1.08
same,IRF Lucia reporter activity,[1]; agonist: LPS (TLR4) 0.1 ug/mL,0.998
Cc1oncc1C(=O)Nc1ccc(C(F)(F)F)cc1 (library stock concentration (final ~1000-fold dilution): 10 mM),IRF Lucia reporter activity,[1]; [4],1.08
same,IRF Lucia reporter activity,[1]; agonist: LPS (TLR4) 0.1 ug/mL,1.39
Cc1oncc1C(=O)Nc1ccc(C(F)(F)F)cc1,IRF Lucia reporter activity,[2]; [5],1.62
CCn1c2ccccc2c2cc(Nc3ccnc(NCCCN4CCOCC4)n3)ccc21 (library stock concentration (final ~1000-fold dilution): 10 mM),IRF Lucia reporter activity,[3]; [4],0.0499
same,IRF Lucia reporter activity,[3]; agonist: LPS (TLR4) 0.1 ug/mL,0.123
CCn1c2ccccc2c2cc(Nc3ccnc(NCCCN4CCOCC4)n3)ccc21,IRF Lucia reporter activity,[2]; [6],0.0354
COC1CC2CCC(C)C(O)(O2)C(=O)C(=O)N2CCCCC2C(=O)OC(C(C)CC2CCC(n3cnnn3)C(OC)C2)CC(=O)C(C)C=C(C)C(O)C(OC)C(=O)C(C)CC(C)C=CC=CC=C1C (stereo unspecified) (library stock concentration (final ~1000-fold dilution): 10 mM),IRF Lucia reporter activity,[1]; [4],0.943
same,IRF Lucia reporter activity,[1]; agonist: LPS (TLR4) 0.1 ug/mL,0.694
COC1CC2CCC(C)C(O)(O2)C(=O)C(=O)N2CCCCC2C(=O)OC(C(C)CC2CCC(n3cnnn3)C(OC)C2)CC(=O)C(C)C=C(C)C(O)C(OC)C(=O)C(C)CC(C)C=CC=CC=C1C (stereo unspecified),IRF Lucia reporter activity,[2]; [5],0.832
CC(C)c1ccc2oc3nc(N)c(C(=O)O)cc3c(=O)c2c1,IRF Lucia reporter activity,[2]; [5],0.979
CC(C)c1ccc2oc3nc(N)c(C(=O)O)cc3c(=O)c2c1 (library stock concentration (final ~1000-fold dilution): 10 mM),IRF Lucia reporter activity,[1]; [4],0.938 and 0.336
same,IRF Lucia reporter activity,[1]; agonist: LPS (TLR4) 0.1 ug/mL,0.94 and 0.52
